Hit rate of the full screen: of about 350,000 compounds, about 9,900 (2.8%) were called active. This list was built around the results that the source calls inconclusive (neither active nor inactive); the mix of calls is not that of the screen. Calls come from the whole dose curve; as a rule, active = well fitted activation curve with a large enough effect; inconclusive = small, poorly fitted or top-dose-only effect; inactive = no such curve, though single readings can be large or run the other way. No potency is given beside an inconclusive call; the fits are too rough.
Test: A quantitative high throughput screen for small molecules that induce DNA re-replication in MCF 10a normal breast cells. For activity, positive = re-replication: % of control where 0% means no effect. Note: nearly all actives have a fitted effect of over 50% in size.
Details: MCF 10A DNA re-replication, Hoechst nuclear intensity, 48 h; activity, positive = re-replication: at 46.1 µM (top of the series)
In the case of `CCOc1ccccc1N(C(=O)CNS(=O)(=O)c1ccccc1)C(CC)C(=O)NCc1ccco1` (stereo unspecified), the Potency is reported as inconclusive [activator, full curve, poor fit].
For `COCCNC(=O)C(OC(=O)CC1Sc2ccccc2NC1=O)c1ccncc1` (stereo unspecified), the Potency was active: 4.61 µM.
In the case of `COc1cc(CC(=O)OCC(=O)N2CC(C)CC(C)C2)cc(OC)c1OC` (stereo unspecified), the “activity, positive = re-replication” value is reported as inactive: 2.53%.
For `O=C(c1ccc(S(=O)(=O)NCc2ccco2)cc1)N1CCN(Cc2ccccc2F)CC1`, the Potency was inconclusive [activator, partial curve, poor fit].
In the case of `Cc1cc(C)n(C(=O)Cn2nc([N+](=O)[O-])cc2C)n1`, the “activity, positive = re-replication” value is reported as inactive: -3.81%.
For `CC(C)(C)n1ncc2c(=O)n(CC(=O)Nc3ccccc3)cnc21`, the “activity, positive = re-replication” value was inactive: -5.88%.
With `CC(C)Cc1nnc(NC(=O)CCC(=O)N2CCN(c3ccccc3)CC2)s1` the “activity, positive = re-replication” value was inactive: 2.87%.
In the case of `O=C(CN1CCC(Cc2ccccc2)CC1)N1CCc2ccccc2C1`, the Potency is reported as inconclusive [activator, partial curve].
For `CN(C)/C=C/C(=O)c1ccc(F)cc1`, the Potency was active: 18.4 µM.
With `O=c1[nH]c2ccccc2nc1/C=C/c1ccccc1` the Potency was active: 3.66 µM.
In the case of `O=C(COc1ccc(Br)cc1)NN1C(=O)c2ccccc2C1=O`, the Potency is reported as inconclusive [activator, single point].
In the case of `CCOC(=O)C1(C)Oc2ccccc2C(C(=O)OC)=C1C(=O)OC` (stereo unspecified), the Potency is reported as inconclusive [activator, full curve, poor fit].
With `COc1cc(CNc2ccc(CNc3ncn[nH]3)cc2)ccc1OCc1ccccc1` the Potency was inconclusive [activator, full curve, poor fit].
For `O=C(NC(=S)NC1CCCCCC1)c1cncc(Br)c1`, the Potency was inconclusive [activator, full curve, poor fit].
With `CC(=O)Nc1ccc(C(=O)OCC(=O)Nc2c(C)n(C)n(-c3ccccc3)c2=O)cc1` the “activity, positive = re-replication” value was inactive: -1.56%.
With `O=C(CCc1ccccc1)NCc1ccc2c(c1)OCO2` the “activity, positive = re-replication” value was inactive: -9.57%.
With `CCN(c1ccccc1)S(=O)(=O)c1ccc(Cl)c(NC(=O)Nc2ccc(Cl)cc2C#N)c1` the Potency was inconclusive [activator, partial curve, poor fit].
With `CS(=O)(=O)Nc1cccc(C2=NN(C(=O)c3ccccc3)C(c3cccs3)C2)c1` (stereo unspecified) the “activity, positive = re-replication” value was inactive: 15.3%.
For `Cc1occc1C(=O)NC1CCCCCCC1`, the Potency was inconclusive [activator, partial curve, poor fit].
With `COc1cc2c(cc1OC)[C@H](C)N(C(=O)NCc1ccccc1)CC2` the Potency was inconclusive [activator, single point].
With `Cc1cc(C)cc(NC(=S)NCc2ccncc2)c1` the “activity, positive = re-replication” value was inactive: -5.69%.
With `CCC(=O)Oc1ccc(C(=O)Nc2ccc([N+](=O)[O-])cc2)cc1` the “activity, positive = re-replication” value was inactive: -0.163%.
With `COc1cccc(CN(C)C(=O)Cn2cc(C)c(=O)[nH]c2=O)c1` the Potency was inconclusive [activator, single point].
In the case of `C=CCc1cccc(CNc2cnc3ccccc3c2)c1O`, the “activity, positive = re-replication” value is reported as inactive: -3.82%.
In the case of `Cc1ccc(SCc2ccc(C(=O)Nc3cccnc3)cc2)cc1`, the “activity, positive = re-replication” value is reported as inactive: 11.1%.
In the case of `CCN1CCN(C(=O)CSc2ccc(C)cc2)CC1`, the “activity, positive = re-replication” value is reported as inactive: 0.479%.
In the case of `CCC(C)n1c(NC(=O)c2ccccc2)c(C#N)c2nc3ccccc3nc21` (stereo unspecified), the Potency is reported as active: 1.3 µM.
In the case of `CCN(CC(=O)NCc1cccs1)C(=O)c1ccc(N(C)S(=O)(=O)c2ccc(C)cc2)cc1`, the “activity, positive = re-replication” value is reported as inactive: -3.66%.
With `CC1CC(C)CN(CCOc2ccc(Br)cc2)C1` (stereo unspecified) the Potency was inconclusive [activator, partial curve, poor fit].
For `Cc1nc(N2CCC3(CC2)OCCO3)c2nnn(Cc3ccccc3F)c2n1`, the Potency was inconclusive [activator, single point].
For `COc1cc(C2CC(c3cccnc3)=NN2c2ccc(F)cc2)cc(OC)c1OC` (stereo unspecified), the Potency was inconclusive [activator, partial curve, poor fit].
For `CC(CNC(=O)CN1C(=O)c2cccnc2Oc2ccc(Cl)cc21)c1ccccc1` (stereo unspecified), the “activity, positive = re-replication” value was inactive: 0.837%.
For `O=c1[nH]c(/C=C\c2cccnc2)c([N+](=O)[O-])c(=O)[nH]1`, the Potency was inconclusive [activator, single point].
For `COc1ccc(C2c3[nH]c4ccccc4c3CCN2C(=O)c2ccccc2C(C)=O)c(F)c1` (stereo unspecified), the “activity, positive = re-replication” value was inactive: 0.696%.
With `CC(=O)c1cccc(NC(=O)CSc2n[nH]c(-c3ccncc3)n2)c1` the Potency was inconclusive [activator, partial curve].
In the case of `Cc1ccc(C(OCC(O)CNC(CO)C(O)c2ccc([N+](=O)[O-])cc2)c2ccccc2)cc1` (stereo unspecified), the Potency is reported as inconclusive [activator, single point].
In the case of `O=C(O)CC1S/C(=N\N=C2CCCCCC2)N(c2ccccc2)C1=O` (stereo unspecified), the Potency is reported as inconclusive [activator, partial curve, poor fit].
In the case of `CCN1C(=O)/C(=C/c2nc3ccccc3c(=O)n2-c2ccccc2)c2ccccc21`, the Potency is reported as inconclusive [activator, single point].
With `COc1ccccc1C(CC(=O)Nc1ccc(C)c(C)c1)c1ccc(OC(C)C)cc1` (stereo unspecified) the “activity, positive = re-replication” value was inactive: -14.7%.
In the case of `COc1ccc(C(=O)CC(=O)C(=O)Nc2ccccc2OC)cc1`, the “activity, positive = re-replication” value is reported as inactive: 20.8%.
In the case of `CCOc1ccc(CN2CCN(Cc3cc4ccccc4[nH]3)CC2CCO)cc1` (stereo unspecified), the Potency is reported as active: 23.1 µM.
For `C[C@@H](N)C(=O)N[C@H]1CCC2C3CC=C4C[C@@H](O)CC[C@]4(C)C3CC[C@@]21C` (stereo partly specified), the Potency was inconclusive [activator, partial curve, poor fit].
With `CC1CCN(S(=O)(=O)c2ccc(C(=O)Nc3nnc(-c4ccncc4)o3)cc2)CC1` the Potency was inconclusive [activator, single point].
With `O=Cc1cc(-c2ccccc2)[nH]c1-c1ccccc1` the Potency was active: 6.51 µM.
With `C=C(C)COc1ccc2c(C)c(C)c(=O)oc2c1OCC(=C)C` the Potency was inconclusive [activator, partial curve].
In the case of `COc1cccc(/C=N/n2c(N)c(S(=O)(=O)c3cccs3)c3nc4ccccc4nc32)c1OC`, the Potency is reported as active: 3.66 µM.
With `Cc1ccc(CNC(=O)C2CCCN(C(=O)Nc3ccc(F)cc3)C2)cc1` (stereo unspecified) the Potency was inconclusive [activator, partial curve, poor fit].
For `Clc1ccc(OCc2nnc(SCCN3CCCCC3)n2Cc2ccco2)cc1`, the Potency was inconclusive [activator, partial curve, poor fit].
In the case of `CCOC(=O)C1(CCOC)CCN(Cc2cc3ccccc3s2)CC1`, the Potency is reported as inconclusive [activator, single point].
With `O=S(=O)(c1cccs1)N1CCN(c2ccnc3cc(Cl)ccc23)CC1` the Potency was inconclusive [activator, single point].
For `C#CCN(C)CC/C=C1\c2ccccc2CSc2ccccc21`, the Potency was inconclusive [activator, single point].
In the case of `CCN(CC(=O)Nc1c(F)cccc1F)C(=O)c1nc2nc(C)cc(C)n2n1`, the “activity, positive = re-replication” value is reported as inactive: -1.77%.
In the case of `CCNC(=S)N(CCN(CC)CC)Cc1cc2cc3c(cc2[nH]c1=O)OCO3`, the Potency is reported as inconclusive [activator, partial curve, poor fit].
With `O=C1NCC2=C1C(c1ccc(Br)cc1)Nc1ccccc1N2` (stereo unspecified) the Potency was inconclusive [activator, partial curve, poor fit].
In the case of `CC1CCN(c2ccc(C(=O)Nc3nnc(C4CC4)s3)cc2[N+](=O)[O-])CC1`, the Potency is reported as inconclusive [activator, single point].
With `O=C(ONC(=O)C1C2C=CC(C2)C1C(=O)NOC(=O)c1ccccc1)c1ccccc1` (stereo unspecified) the Potency was inconclusive [activator, single point].
In the case of `CC(CC(=O)OCC(=O)NC1CCS(=O)(=O)C1)c1ccccc1` (stereo unspecified), the “activity, positive = re-replication” value is reported as inactive: 2.06%.
For `CCOc1ccc(/C=C/C(=O)Nc2cccc(C(C)=O)c2)cc1`, the Potency was inconclusive [activator, single point].
With `Cc1ccc(C)c(N(CC(=O)NC(C)C)C(=O)CCC(=O)Nc2ccccn2)c1` the “activity, positive = re-replication” value was inactive: -10.1%.
With `CN(C)/C=N/c1cc(=O)[nH]c(=O)n1C` the Potency was inconclusive [activator, full curve, poor fit].
For `CCOc1ccc(NC(=O)c2cc3ccccc3cc2OC)cc1`, the Potency was inconclusive [activator, single point].
With `Cc1c(C(=O)N(C)C)sc2nc(-c3ccccn3)[nH]c(=O)c12` the “activity, positive = re-replication” value was inactive: -5.69%.
With `O=C(C[n+]1cc(-c2ccc(F)cc2)n2c1CCC2)Nc1nc(-c2ccccc2)cs1` the “activity, positive = re-replication” value was inactive: -7.78%.
With `CCOc1ccc2nc(NC(=O)CN3CCN(C)CC3)sc2c1` the Potency was inconclusive [activator, partial curve].
In the case of `COc1ccc(-c2nn(-c3ccccc3)cc2/C=N/Nc2ccc(S(N)(=O)=O)cc2[N+](=O)[O-])cc1OC`, the Potency is reported as inconclusive [activator, full curve, poor fit].
For `CC1=C(C(=O)OCc2ccccc2)C(c2ccsc2)NC(=O)N1C` (stereo unspecified), the Potency was inconclusive [activator, full curve, poor fit].
In the case of `CC(=O)Nc1ccc(NC2=C(Cl)C(=O)c3ccccc3C2=O)cc1`, the Potency is reported as inconclusive [activator, full curve, poor fit].
In the case of `O=C(NCCCO)c1c(O)c2cccc3c2n(c1=O)CCC3`, the Potency is reported as inconclusive [activator, partial curve, poor fit].
For `CNC(=O)CCC(=O)Nc1ccc(C(=O)OC)cc1`, the “activity, positive = re-replication” value was inactive: -1.07%.
For `Cc1nnc(N2C(=O)c3cccc4c([N+](=O)[O-])ccc(c34)C2=O)s1`, the Potency was active: 23.1 µM.
With `COC(=O)NCC(c1ccc2c(c1)OCO2)N1CCN(c2ccc(OC)cc2)CC1` (stereo unspecified) the Potency was inconclusive [activator, partial curve, poor fit].

— PubChem BioAssay AID624296 (National Center for Advancing Translational Sciences (NCATS), 2012)
Potency is the fitted concentration of half-maximal effect; tags give direction and shape of the fitted curve.
